Results: article PMC9084892, “Von Willebrand factor A1 domain stability and affinity for GPIbα are differentially regulated by its O-glycosylated N- and C-linker” (eLife, 2022)
Each block holds one binder with its values, some of them ahead of it.

What was measured:
[1] = molecular target: T1, Wild-type GPIbα, residues 1-290 of the mature protein, with biotinylated Avi-tag and His6 tag (biotin on the Avi-tag); assay: BLI; biotinylated GPIbα on streptavidin sensors, A1 constructs as analyte; 20 mM HEPES pH 7.5, 0.02% Tween-20, 150 mM NaCl; global fit to a single kon and koff; Octet RED384; details: both partners purified
T1 chain: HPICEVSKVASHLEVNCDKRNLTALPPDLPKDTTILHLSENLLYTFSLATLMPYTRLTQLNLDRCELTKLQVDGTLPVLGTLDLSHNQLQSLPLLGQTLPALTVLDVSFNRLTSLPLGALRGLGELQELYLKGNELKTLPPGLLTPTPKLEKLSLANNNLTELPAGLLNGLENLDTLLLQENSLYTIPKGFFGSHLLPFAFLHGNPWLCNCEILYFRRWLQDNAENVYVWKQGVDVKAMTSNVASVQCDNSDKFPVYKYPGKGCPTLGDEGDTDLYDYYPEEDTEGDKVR

[2] = molecular target: T1, Wild-type GPIbα, residues 1-290 of the …; assay: BLI; biotinylated GPIbα on streptavidin sensors, A1 constructs as analyte; 20 mM HEPES pH 7.5, 0.02% Tween-20, 10 mM NaCl; global fit to a single kon and koff; details: both partners purified

- fold lower affinity than A1 short [1]: 2.5 fold
B1: VWF A1 domain construct A1+C ([…], not glycosylated) (domain or fragment)
chain: not shown
notes: von Willebrand factor, human, A1 domain with the C-linker, […], pre-pro-VWF numbering; The limits for each name come from the start and end residues in the methods; source: E. coli SHuffle, purified (Ni-NTA, TEV cleavage, heparin, Superdex 200); not shown: thioredoxin, N-terminal, cleaved

- fold increase in affinity, 10 mM against 150 mM NaCl [2]: 20 fold
- fold increase in kon, 10 mM against 150 mM NaCl [2]: 7 fold
B2: VWF A1 domain construct A1+OGly+N+C ([…], O-glycosylated) (domain or fragment)
chain: not shown
modifications: O-glycosylated N- and C-linkers
notes: von Willebrand factor, human, A1 domain with the N- and C-linkers, […], pre-pro-VWF numbering; It extends three residues beyond the bacterial A1+N+C so as to include the O-glycosylated residues Ser-1486 and Thr-1487; also called A1NC

- fold difference in kon, A1 short against A1+OGly+N+C [1]: 80 fold
B3: VWF A1 domain construct A1 short ([…]) (domain or fragment)
chain: not shown
notes: von Willebrand factor, human, A1 domain without the N- and C-linkers, […], pre-pro-VWF numbering; Both the mammalian and the bacterial methods allow a […] construct; If it was made in E. coli, it carried an N-terminal thioredoxin that was cut off with TEV protease; Long-range disulfide […] is present; source: purified (Ni-NTA, Superdex 200), gel filtered again on the day of measurement

- fold difference in koff, A1+OGly+C against A1+N (direction not told) [1]: 10 fold
- fold lower affinity than A1+C [1]: 2 fold
B4: VWF A1 domain construct A1+OGly+C ([…], O-glycosylated) (domain or fragment)
chain: not shown
modifications: O-glycosylated C-linker
notes: von Willebrand factor, human, A1 domain with the C-linker, […], pre-pro-VWF numbering; also called A1+OGlyc+C; A1C

- fold lower affinity than A1 short [1]: 10 fold
B5: VWF A1 domain construct A1+N+C ([…], not glycosylated) (domain or fragment)
chain: not shown
notes: source: E. coli SHuffle, purified (Ni-NTA, TEV cleavage, heparin, Superdex 200); not shown: thioredoxin, N-terminal, cleaved

- fold lower affinity than A1+N [1]: 10 fold
B6: VWF A1 domain construct A1+OGly+N ([…], O-glycosylated) (domain or fragment)
chain: not shown
modifications: O-glycosylated N-linker
notes: von Willebrand factor, human, A1 domain with the N-linker, […], pre-pro-VWF numbering; The sites were not determined on this construct; also called A1N

- fold lower affinity than A1 short [1]: 4.3 fold
B7: VWF A1 domain construct A1+N ([…], not glycosylated) (domain or fragment)
chain: not shown
notes: von Willebrand factor, human, A1 domain with the N-linker, […], pre-pro-VWF numbering; The limits for each name come from the start and end residues in the methods and from the N-linker being defined as […]; source: E. coli SHuffle, purified (Ni-NTA, TEV cleavage, heparin, Superdex 200); not shown: thioredoxin, N-terminal, cleaved
